Hit rate of the full screen: of about 3,200 compounds, about 75 (2%) showed an effect of 50% or more. The list shows a part of the results.
test system: T1, S. aureus MSSA476; design: species or system S. aureus MSSA476 (TSB) or V. cholerae SAD30 (LB); 384-well bacterial growth screen at 25 uM, OD600 relative to DMSO control; details: relative growth, OD600, TSB; 25 µM; inhibitor
T1 construct: MSSA476

Compound	% of control remaining
O=C(CCl)Cc1ccc(F)cc1F [10-G17, 1-chloro-3-(2,4-difluorophenyl)propan-2-one]	129.688%
CC(Cl)C(=O)NCCS(=O)(=O)Nc1ccccn1 (stereo not shown) [7-L05, 2-chloro-N-{2-[(pyridin-2-yl)sulfamoyl]ethyl}propanamide]	99.529%
O=C(CCl)NCCCC1CCCCC1 [6-O05, 2-chloro-N-(3-cyclohexylpropyl)acetamide]	75.4634%
C=CC(=O)NCc1ccc(S(=O)(=O)NC2CC2)cc1 [2-P19, N-{[4-(cyclopropylsulfamoyl)phenyl]methyl}prop-2-enamide]	104.439%
CC(=O)Nc1cccc(N2C(=O)C=CC2=O)c1 [10-D09, N-[3-(2,5-dioxo-2,5-dihydro-1H-pyrrol-1-yl)phenyl]acetamide]	117.5%
CN(C)c1ccc(C=C(C#N)C(=O)N2CCC2)cc1 [9-A14, 2-(azetidine-1-carbonyl)-3-[4-(dimethylamino)phenyl]prop-2-enenitrile]	86.8914%
O=C(CCl)NC1CN(S(=O)(=O)c2ccc3c(c2)OCCO3)C1 [5-I16, 2-chloro-N-[1-(2,3-dihydro-1,4-benzodioxine-6-sulfonyl)azetidin-3-yl]acetamide]	103.461%
C=CC(=O)NC1CCN(c2nc(C3CC3)cc(C(F)(F)F)n2)CC1 [1-L03, N-{1-[4-cyclopropyl-6-(trifluoromethyl)pyrimidin-2-yl]piperidin-4-yl}prop-2-enamide]	108.308%
C=CC(=O)NCC(C)(C)c1coc(-c2ccccc2)n1 [3-A03, N-[2-methyl-2-(2-phenyl-1,3-oxazol-4-yl)propyl]prop-2-enamide]	95.0805%
Cc1c(NC(=O)C(C)Cl)c(=O)n(-c2ccccc2)n1C (stereo not shown) [6-E06, 2-chloro-N-(1,5-dimethyl-3-oxo-2-phenyl-2,3-dihydro-1H-pyrazol-4-yl)propanamide]	106.878%
N#CC(=Cc1ccc(N2CCCC2)cc1)C(=O)N1CCC(C(N)=O)CC1 [9-K12, 1-(2-cyano-2-{[4-(pyrrolidin-1-yl)phenyl]methylidene}acetyl)piperidine-4-carboxamide]	96.1798%
C=CC(=O)N1CCC(NC(C)=O)C1 (stereo not shown) [1-B19, N-[1-(prop-2-enoyl)pyrrolidin-3-yl]acetamide]	126.242%
C=CC(=O)NCC1(c2ccnn2C)CC1 [2-P15, N-{[1-(1-methyl-1H-pyrazol-5-yl)cyclopropyl]methyl}prop-2-enamide]	87.3803%
Cc1ccc(NC(=O)CCl)c([N+](=O)[O-])c1 [4-A07, 2-chloro-N-(4-methyl-2-nitrophenyl)acetamide]	74.7022%
C=CC(=O)NC1Cc2ccccc2C1=O (stereo not shown) [1-H21, N-(1-oxo-2,3-dihydro-1H-inden-2-yl)prop-2-enamide]	91.7802%
O=C(CCl)N1c2ccccc2SCC1c1ccccc1 (stereo not shown) [4-M18, 2-chloro-1-(3-phenyl-3,4-dihydro-2H-1,4-benzothiazin-4-yl)ethan-1-one]	9.528%
C=CC(=O)N(C)Cc1nnc(C2CC2)n1C [2-H11, N-[(5-cyclopropyl-4-methyl-4H-1,2,4-triazol-3-yl)methyl]-N-methylprop-2-enamide]	101.654%
C=CCNC(=O)C(C#N)=Cc1ccc(-c2ccc(F)cc2)o1 [8-L20, 2-cyano-3-[5-(4-fluorophenyl)furan-2-yl]-N-(prop-2-en-1-yl)prop-2-enamide]	94.2739%
COc1ccc(N(CC(F)(F)F)C(=O)CCl)cc1 [4-C15, 2-chloro-N-(4-methoxyphenyl)-N-(2,2,2-trifluoroethyl)acetamide]	118.152%
Cc1ccc(C=C(C#N)C(=O)N2CCCC2)cc1 [8-E17, 3-(4-methylphenyl)-2-(pyrrolidine-1-carbonyl)prop-2-enenitrile]	102.573%
C=CC(=O)N1CCC(C(=O)NC(C)c2cccc(C(F)(F)F)c2)CC1 (stereo not shown) [3-G13, 1-(prop-2-enoyl)-N-{1-[3-(trifluoromethyl)phenyl]ethyl}piperidine-4-carboxamide]	98.9116%
CC(C)CN(C(=O)CCl)c1cnn(-c2ccccn2)c1 [5-A12, 2-chloro-N-(2-methylpropyl)-N-[1-(pyridin-2-yl)-1H-pyrazol-4-yl]acetamide]	106.74%
C=CC(=O)N(CC)CC(=O)N1CCc2[nH]nc(C(F)(F)F)c2C1 [3-A14, N-ethyl-N-{2-oxo-2-[3-(trifluoromethyl)-1H,4H,5H,6H,7H-pyrazolo[4,3-c]pyridin-5-yl]ethyl}prop-2-enamide]	101.35%
Cn1nccc1CN1C[C@@H](F)C[C@H]1CNC(=O)CCl [5-C04, 2-chloro-N-{[(2S,4S)-4-fluoro-1-[(1-methyl-1H-pyrazol-5-yl)methyl]pyrrolidin-2-yl]methyl}acetamide]	95.4463%
Cc1ccc2sc(N(Cc3ccccc3)C(=O)CCl)nc2c1C [4-K06, N-benzyl-2-chloro-N-(4,5-dimethyl-1,3-benzothiazol-2-yl)acetamide]	107.861%
C=CC(=O)N1CCN(C(=O)c2ccco2)CC1 [1-P11, 1-[4-(furan-2-carbonyl)piperazin-1-yl]prop-2-en-1-one]	90.7253%
C=CC(=O)N1CCN(Cc2nc(C(C)C)no2)CC1 [3-G11, 1-(4-{[3-(propan-2-yl)-1,2,4-oxadiazol-5-yl]methyl}piperazin-1-yl)prop-2-en-1-one]	105.181%
C=CC(=O)Nc1cc(S(=O)(=O)N(C)C)cc(C)c1C [1-K11, N-[5-(dimethylsulfamoyl)-2,3-dimethylphenyl]prop-2-enamide]	124.835%

Reference: paper PMC11995724, “Antibiotic target discovery by integrated phenotypic and activity-based profiling of electrophilic fragments” (Cell chemical biology, 2025)
